From paper PMC12820563 come the findings set out here.

Some of the results follow. The list includes weakly bound sequences.

The test concerns the target T1, MBP-FoxP3dN (UniProt Q99JB6).
T1 sequence: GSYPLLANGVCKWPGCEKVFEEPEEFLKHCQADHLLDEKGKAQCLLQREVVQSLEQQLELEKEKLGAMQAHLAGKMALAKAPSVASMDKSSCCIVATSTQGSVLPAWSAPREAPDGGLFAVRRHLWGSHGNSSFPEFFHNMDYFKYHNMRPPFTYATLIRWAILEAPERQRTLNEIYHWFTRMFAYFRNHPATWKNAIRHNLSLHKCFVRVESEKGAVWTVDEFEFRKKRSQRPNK
As to the kind of experiment: PD-seq (MBP pull-down with sequencing). The following applies: 20 mM Tris-HCl pH 7.5, 100 mM NaCl, 1.5 mM MgCl2, 0.4 uM protein, 0.1 uM dsDNA library, 30 min, room temperature, amylose pull-down; high values mean tight binding; double strand, one strand shown.
In the case of “GATGATTGTTCTCCCAGCTGATGAATTGGTCTTGTCGAGTAAACAAATTTTCCTAATCTTTCTGTTCAAGCGCCATCTAC”, the binding signal (RPM ratio (pull-down/input)) was 0.435. As for “GATGATTGTTCTCCCAGCTGATGAATTGGAAGGCTCGAGTAAACAAATTTTCCTAATCTTTCTGTTCAAGCGCCATCTAC”, the binding signal (RPM ratio (pull-down/input)) was 0.242. Then “GATGATTGTTCTCCCAGCTGATGAATTCGAGGTTTCGAGTAAACAAATTTTCCTAATCTTTCTGTTCAAGCGCCATCTAC”, with 0.563; and “GATGATTGTTCTCCCAGCTGATGAATTTAGTCGATCGAGTAAACAAATTTTCCTAATCTTTCTGTTCAAGCGCCATCTAC”, with 0.436; and “GATGATTGTTCTCCCAGCTGATGAATTCATCACCTCGAGTAAACAAATTTTCCTAATCTTTCTGTTCAAGCGCCATCTAC”, with 1.36. With “GATGATTGTTCTCCCAGCTGATGAATTAACGTTATCGAGTAAACAAATTTTCCTAATCTTTCTGTTCAAGCGCCATCTAC”, the binding signal (RPM ratio (pull-down/input)) was determined as 0.715. Then “GATGATTGTTCTCCCAGCTGATGAATTAGTACAGTCGAGTAAACAAATTTTCCTAATCTTTCTGTTCAAGCGCCATCTAC”, with 0.484; and “GATGATTGTTCTCCCAGCTGATGAATTGTCGCATTCGAGTAAACAAATTTTCCTAATCTTTCTGTTCAAGCGCCATCTAC”, with 6.14. To “GATGATTGTTCTCCCAGCTGATGAATTTCAGTCATCGAGTAAACAAATTTTCCTAATCTTTCTGTTCAAGCGCCATCTAC” belongs 0.551; to “GATGATTGTTCTCCCAGCTGATGAATTAGAAGTGTCGAGTAAACAAATTTTCCTAATCTTTCTGTTCAAGCGCCATCTAC”, 0.403; to “GATGATTGTTCTCCCAGCTGATGAATTGAACCTGTCGAGTAAACAAATTTTCCTAATCTTTCTGTTCAAGCGCCATCTAC”, 0.327. With “GATGATTGTTCTCCCAGCTGATGAATTATGAGCGTCGAGTAAACAAATTTTCCTAATCTTTCTGTTCAAGCGCCATCTAC”, the binding signal (RPM ratio (pull-down/input)) amounted to 0.726. To “GATGATTGTTCTCCCAGCTGATGAATTCGACATTTCGAGTAAACAAATTTTCCTAATCTTTCTGTTCAAGCGCCATCTAC” belongs 0.818; to “GATGATTGTTCTCCCAGCTGATGAATTTGGGCTTTCGAGTAAACAAATTTTCCTAATCTTTCTGTTCAAGCGCCATCTAC”, 1.02; to “GATGATTGTTCTCCCAGCTGATGAATTGTATTCATCGAGTAAACAAATTTTCCTAATCTTTCTGTTCAAGCGCCATCTAC”, 2.02. Then “GATGATTGTTCTCCCAGCTGATGAATTTTATTCTTCGAGTAAACAAATTTTCCTAATCTTTCTGTTCAAGCGCCATCTAC”, with 0.491. To “GATGATTGTTCTCCCAGCTGATGAATTAAGTGCATCGAGTAAACAAATTTTCCTAATCTTTCTGTTCAAGCGCCATCTAC” belongs 1.71; to “GATGATTGTTCTCCCAGCTGATGAATTAAGCTCTTCGAGTAAACAAATTTTCCTAATCTTTCTGTTCAAGCGCCATCTAC”, 0.47. On to “GATGATTGTTCTCCCAGCTGATGAATTCTCCGTGTCGAGTAAACAAATTTTCCTAATCTTTCTGTTCAAGCGCCATCTAC”, for which the binding signal (RPM ratio (pull-down/input)) was found to be 0.267.

In the case of “GATGATTGTTCTCCCAGCTGATGAATTGTCAAGGTCGAGTAAACAAATTTTCCTAATCTTTCTGTTCAAGCGCCATCTAC”, the binding signal (RPM ratio (pull-down/input)) stood at 0.251.

“GATGATTGTTCTCCCAGCTGATGAATTGTGCGCCTCGAGTAAACAAATTTTCCTAATCTTTCTGTTCAAGCGCCATCTAC”: the binding signal (RPM ratio (pull-down/input)) came out at 2.92. Then “GATGATTGTTCTCCCAGCTGATGAATTACCTCAGTCGAGTAAACAAATTTTCCTAATCTTTCTGTTCAAGCGCCATCTAC”, with 0.231; and “GATGATTGTTCTCCCAGCTGATGAATTGCTGTGCTCGAGTAAACAAATTTTCCTAATCTTTCTGTTCAAGCGCCATCTAC”, with 0.947; and “GATGATTGTTCTCCCAGCTGATGAATTCTATTTTTCGAGTAAACAAATTTTCCTAATCTTTCTGTTCAAGCGCCATCTAC”, with 3.5. To “GATGATTGTTCTCCCAGCTGATGAATTAACGTACTCGAGTAAACAAATTTTCCTAATCTTTCTGTTCAAGCGCCATCTAC” belongs 0.434; to “GATGATTGTTCTCCCAGCTGATGAATTCGATCTTTCGAGTAAACAAATTTTCCTAATCTTTCTGTTCAAGCGCCATCTAC”, 0.315; to “GATGATTGTTCTCCCAGCTGATGAATTTCGCCACTCGAGTAAACAAATTTTCCTAATCTTTCTGTTCAAGCGCCATCTAC”, 5.74. Regarding “GATGATTGTTCTCCCAGCTGATGAATTGCACTTGTCGAGTAAACAAATTTTCCTAATCTTTCTGTTCAAGCGCCATCTAC”, the binding signal (RPM ratio (pull-down/input)) is 1.28. For “GATGATTGTTCTCCCAGCTGATGAATTTTCACGATCGAGTAAACAAATTTTCCTAATCTTTCTGTTCAAGCGCCATCTAC”, the binding signal (RPM ratio (pull-down/input)) amounted to 0.215. To “GATGATTGTTCTCCCAGCTGATGAATTTGTAATCTCGAGTAAACAAATTTTCCTAATCTTTCTGTTCAAGCGCCATCTAC” belongs 3.82. Then “GATGATTGTTCTCCCAGCTGATGAATTTATGGGGTCGAGTAAACAAATTTTCCTAATCTTTCTGTTCAAGCGCCATCTAC”, with 1.33; and “GATGATTGTTCTCCCAGCTGATGAATTGGTTGAATCGAGTAAACAAATTTTCCTAATCTTTCTGTTCAAGCGCCATCTAC”, with 0.407; and “GATGATTGTTCTCCCAGCTGATGAATTCTACAACTCGAGTAAACAAATTTTCCTAATCTTTCTGTTCAAGCGCCATCTAC”, with 0.303. “GATGATTGTTCTCCCAGCTGATGAATTCGGTCGTTCGAGTAAACAAATTTTCCTAATCTTTCTGTTCAAGCGCCATCTAC”: the binding signal (RPM ratio (pull-down/input)) was determined as 0.509. Then “GATGATTGTTCTCCCAGCTGATGAATTGGCGATCTCGAGTAAACAAATTTTCCTAATCTTTCTGTTCAAGCGCCATCTAC”, with 0.465; and “GATGATTGTTCTCCCAGCTGATGAATTTCCCAGTTCGAGTAAACAAATTTTCCTAATCTTTCTGTTCAAGCGCCATCTAC”, with 0.22; and “GATGATTGTTCTCCCAGCTGATGAATTCCCAGCATCGAGTAAACAAATTTTCCTAATCTTTCTGTTCAAGCGCCATCTAC”, with 0.658. Take “GATGATTGTTCTCCCAGCTGATGAATTAACAGATTCGAGTAAACAAATTTTCCTAATCTTTCTGTTCAAGCGCCATCTAC”: the binding signal (RPM ratio (pull-down/input)) came to 0.282. To “GATGATTGTTCTCCCAGCTGATGAATTATTCCCCTCGAGTAAACAAATTTTCCTAATCTTTCTGTTCAAGCGCCATCTAC” belongs 0.293. To “GATGATTGTTCTCCCAGCTGATGAATTCACCCAGTCGAGTAAACAAATTTTCCTAATCTTTCTGTTCAAGCGCCATCTAC” belongs 0.2; to “GATGATTGTTCTCCCAGCTGATGAATTTCTAACCTCGAGTAAACAAATTTTCCTAATCTTTCTGTTCAAGCGCCATCTAC”, 0.233; to “GATGATTGTTCTCCCAGCTGATGAATTAGGATCGTCGAGTAAACAAATTTTCCTAATCTTTCTGTTCAAGCGCCATCTAC”, 0.31. On to “GATGATTGTTCTCCCAGCTGATGAATTTGTCGGATCGAGTAAACAAATTTTCCTAATCTTTCTGTTCAAGCGCCATCTAC”, for which the binding signal (RPM ratio (pull-down/input)) stood at 1.05.

“GATGATTGTTCTCCCAGCTGATGAATTCTCACTCTCGAGTAAACAAATTTTCCTAATCTTTCTGTTCAAGCGCCATCTAC”: the binding signal (RPM ratio (pull-down/input)) turned out to be 0.295. To “GATGATTGTTCTCCCAGCTGATGAATTTCGTTGCTCGAGTAAACAAATTTTCCTAATCTTTCTGTTCAAGCGCCATCTAC” belongs 1.19; to “GATGATTGTTCTCCCAGCTGATGAATTGTCGACCTCGAGTAAACAAATTTTCCTAATCTTTCTGTTCAAGCGCCATCTAC”, 0.355; to “GATGATTGTTCTCCCAGCTGATGAATTCGGGAGATCGAGTAAACAAATTTTCCTAATCTTTCTGTTCAAGCGCCATCTAC”, 0.252. To “GATGATTGTTCTCCCAGCTGATGAATTTTGTCTATCGAGTAAACAAATTTTCCTAATCTTTCTGTTCAAGCGCCATCTAC” belongs 4.99.

Regarding “GATGATTGTTCTCCCAGCTGATGAATTCTGGGAGTCGAGTAAACAAATTTTCCTAATCTTTCTGTTCAAGCGCCATCTAC”, the binding signal (RPM ratio (pull-down/input)) stood at 0.24.

As for “GATGATTGTTCTCCCAGCTGATGAATTTACGCCATCGAGTAAACAAATTTTCCTAATCTTTCTGTTCAAGCGCCATCTAC”, the binding signal (RPM ratio (pull-down/input)) turned out to be 2.38. Then “GATGATTGTTCTCCCAGCTGATGAATTTGAATTTTCGAGTAAACAAATTTTCCTAATCTTTCTGTTCAAGCGCCATCTAC”, with 0.538. To “GATGATTGTTCTCCCAGCTGATGAATTTATAGGATCGAGTAAACAAATTTTCCTAATCTTTCTGTTCAAGCGCCATCTAC” belongs 0.414; to “GATGATTGTTCTCCCAGCTGATGAATTATATAGCTCGAGTAAACAAATTTTCCTAATCTTTCTGTTCAAGCGCCATCTAC”, 0.511; to “GATGATTGTTCTCCCAGCTGATGAATTTAGATCCTCGAGTAAACAAATTTTCCTAATCTTTCTGTTCAAGCGCCATCTAC”, 0.531.

On to “GATGATTGTTCTCCCAGCTGATGAATTGGCGTCTTCGAGTAAACAAATTTTCCTAATCTTTCTGTTCAAGCGCCATCTAC”, for which the binding signal (RPM ratio (pull-down/input)) is 1.06.

As to “GATGATTGTTCTCCCAGCTGATGAATTCCTTCATTCGAGTAAACAAATTTTCCTAATCTTTCTGTTCAAGCGCCATCTAC”, the binding signal (RPM ratio (pull-down/input)) was 0.281. Then “GATGATTGTTCTCCCAGCTGATGAATTGTCCTGGTCGAGTAAACAAATTTTCCTAATCTTTCTGTTCAAGCGCCATCTAC”, with 0.267; and “GATGATTGTTCTCCCAGCTGATGAATTTCTTATTTCGAGTAAACAAATTTTCCTAATCTTTCTGTTCAAGCGCCATCTAC”, with 0.878.

On to “GATGATTGTTCTCCCAGCTGATGAATTCCCTGAATCGAGTAAACAAATTTTCCTAATCTTTCTGTTCAAGCGCCATCTAC”, for which the binding signal (RPM ratio (pull-down/input)) is 0.178.

As for “GATGATTGTTCTCCCAGCTGATGAATTAGCCGTATCGAGTAAACAAATTTTCCTAATCTTTCTGTTCAAGCGCCATCTAC”, the binding signal (RPM ratio (pull-down/input)) is 0.49. Take “GATGATTGTTCTCCCAGCTGATGAATTATTGTGCTCGAGTAAACAAATTTTCCTAATCTTTCTGTTCAAGCGCCATCTAC”: the binding signal (RPM ratio (pull-down/input)) was determined as 1.46. Turning to “GATGATTGTTCTCCCAGCTGATGAATTTCACTCTTCGAGTAAACAAATTTTCCTAATCTTTCTGTTCAAGCGCCATCTAC”, the binding signal (RPM ratio (pull-down/input)) is 0.407. Turning to “GATGATTGTTCTCCCAGCTGATGAATTTGCTCGCTCGAGTAAACAAATTTTCCTAATCTTTCTGTTCAAGCGCCATCTAC”, the binding signal (RPM ratio (pull-down/input)) worked out at 0.403.
